Laboratory results published in the supplement of paper PMC4604168 (melanoma cell lines).
Some of the results follow. Single values are uncertain, as repeats are few or missing.

system: MeWo; experiment: cell count relative to DMSO control; melanoma cells; higher = more viable cells; conditions: library dose: low library concentration; 72 h
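Also: cell number obtained by counting DAPI-stained nuclei in high-throughput microscope images with image analysis software, screen run in 1,536-well plates.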

SMILES | cell count
Nc1ncn([C@H]2C[C@H](O)[C@@H](CO)O2)c(=O)n1 [decitabine] + O=C(O)c1ccc(-c2c[nH]c3ncc(-c4ccccc4)cc23)cc1C1CCCC1 [GSK650394] (first compound 0.1 µM, partner dose 0.16 µM) | 86.9%
CC(=O)O[C@@]12CO[C@@H]1C[C@H](O)[C@@]1(C)C(=O)[C@H](O)C3=C(C)[C@@H](OC(=O)[C@H](O)[C@@H](NC(=O)OC(C)(C)C)c4ccccc4)C[C@@](O)([C@@H](OC(=O)c4ccccc4)[C@H]21)C3(C)C [Docetaxel] + C=CCn1c(=O)c2cnc(Nc3ccc(N4CCN(C)CC4)cc3)nc2n1-c1cccc(C(C)(C)O)n1 [MK1775] (first compound 0.0001 µM, partner dose 0.02 µM) | 46.1%
Nc1nc(F)nc2c1ncn2[C@@H]1O[C@H](CO)[C@@H](O)[C@@H]1O [fludarabine] + Cc1cc([N+](=O)[O-])ccc1NS(=O)(=O)c1cc(Cl)ccc1Cl [FH535] (first compound 0.2 µM, partner dose 1 µM) | 37.2%
CC(=O)O[C@@]12CO[C@@H]1C[C@H](O)[C@@]1(C)C(=O)[C@H](O)C3=C(C)[C@@H](OC(=O)[C@H](O)[C@@H](NC(=O)OC(C)(C)C)c4ccccc4)C[C@@](O)([C@@H](OC(=O)c4ccccc4)[C@H]21)C3(C)C [Docetaxel] + O=S(=O)(c1ccccc1)N(CC(F)(F)F)c1ccc(C(O)(C(F)(F)F)C(F)(F)F)cc1 [T0901317] (first compound 0.0001 µM, partner dose 1.4 µM) | 35.3%
CC(=O)c1c(C)c2cnc(Nc3ccc(N4CCNCC4)cn3)nc2n(C2CCCC2)c1=O [palbociclib] + CC(C)(C)c1cnc(CSc2cnc(NC(=O)C3CCNCC3)s2)o1 [SNS-032] (first compound 0.04 µM, partner dose 0.01 µM) | 86.8%
CC(=O)O[C@@]12CO[C@@H]1C[C@H](O)[C@@]1(C)C(=O)[C@H](O)C3=C(C)[C@@H](OC(=O)[C@H](O)[C@@H](NC(=O)OC(C)(C)C)c4ccccc4)C[C@@](O)([C@@H](OC(=O)c4ccccc4)[C@H]21)C3(C)C [Docetaxel] + CO[C@@H]1[C@H](N(C)C(=O)c2ccccc2)C[C@H]2O[C@]1(C)n1c3ccccc3c3c4c(c5c6ccccc6n2c5c31)C(=O)NC4 [Midostaurin] (first compound 0.0001 µM, partner dose 0.08 µM) | 29.7%
Nc1nc(F)nc2c1ncn2[C@@H]1O[C@H](CO)[C@@H](O)[C@@H]1O [fludarabine] + COc1ccc2c(c1)CCC1C2CCC2(C)C(NCCCCCCN3C(=O)C=CC3=O)CCC12 [U73122] (first compound 0.2 µM, partner dose 0.4 µM) | 26.7%
CC(=O)c1c(C)c2cnc(Nc3ccc(N4CCNCC4)cn3)nc2n(C2CCCC2)c1=O [palbociclib] + Cn1c(Nc2ccc(C(F)(F)F)cc2)nc2cc(Oc3ccnc(-c4ncc(C(F)(F)F)[nH]4)c3)ccc21 [CHIR265] (first compound 0.04 µM, partner dose 0.08 µM) | 49.8%
Nc1ccn([C@@H]2O[C@H](CO)[C@@H](O)C2(F)F)c(=O)n1 [gemcitabine] + O=c1cc(-c2cccc3c2Sc2ccccc2S3)oc(N2CCOCC2)c1 [KU55933] (first compound 0.0004 µM, partner dose 1 µM) | 106%
CC(=O)c1c(C)c2cnc(Nc3ccc(N4CCNCC4)cn3)nc2n(C2CCCC2)c1=O [palbociclib] + CO[C@@H]1[C@H](N(C)C(=O)c2ccccc2)C[C@H]2O[C@]1(C)n1c3ccccc3c3c4c(c5c6ccccc6n2c5c31)C(=O)NC4 [Midostaurin] (first compound 0.04 µM, partner dose 0.08 µM) | 69.2%
Nc1ncn([C@H]2C[C@H](O)[C@@H](CO)O2)c(=O)n1 [decitabine] + CO[C@@H]1[C@H](N(C)C(=O)c2ccccc2)C[C@H]2O[C@]1(C)n1c3ccccc3c3c4c(c5c6ccccc6n2c5c31)C(=O)NC4 [Midostaurin] (first compound 0.1 µM, partner dose 0.08 µM) | 72%
CC(=O)c1c(C)c2cnc(Nc3ccc(N4CCNCC4)cn3)nc2n(C2CCCC2)c1=O [palbociclib] + O=C(O)C(=O)Nc1sc2c(c1C(=O)O)CCNC2 [TCS401] (first compound 0.04 µM, partner dose 1.66667 µM) | 69.9%
Nc1nc(F)nc2c1ncn2[C@@H]1O[C@H](CO)[C@@H](O)[C@@H]1O [fludarabine] + CN(C)S(=O)(=O)c1ccc2c(c1)/C(=C/c1cc3c([nH]1)CCCC3)C(=O)N2 [SU6656] (first compound 0.2 µM, partner dose 0.4 µM) | 36.2%
Nc1nc(F)nc2c1ncn2[C@@H]1O[C@H](CO)[C@@H](O)[C@@H]1O [fludarabine] + Cc1ccc(NC(=O)c2cccc(N(C)C)c2)cc1NC(=O)c1ccc(O)cc1 [ZM336372] (first compound 0.2 µM, partner dose 2 µM) | 29.3%
Nc1ncn([C@H]2C[C@H](O)[C@@H](CO)O2)c(=O)n1 [decitabine] + c1cc(-c2cnn3cc(-c4ccc(OCCN5CCCCC5)cc4)cnc23)ccn1 [Dorsomorphin] (first compound 0.1 µM, partner dose 0.4 µM) | 101%
Nc1nc(F)nc2c1ncn2[C@@H]1O[C@H](CO)[C@@H](O)[C@@H]1O [fludarabine] + COc1cc2ncnc(Nc3ccc(Oc4ccccc4)cc3)c2cc1OC [SrcI1] (first compound 0.2 µM, partner dose 2 µM) | 42.8%
Nc1ccn([C@@H]2O[C@H](CO)[C@@H](O)C2(F)F)c(=O)n1 [gemcitabine] + O=C(Nc1cccc(Cl)c1)Nc1ncc(CCNc2ncnc3ccsc23)s1 [SNS314] (first compound 0.0004 µM, partner dose 0.0008 µM) | 91.1%
Nc1nc(F)nc2c1ncn2[C@@H]1O[C@H](CO)[C@@H](O)[C@@H]1O [fludarabine] + C#Cc1cccc(Nc2ncnc3cc(OCCOC)c(OCCOC)cc23)c1 [erlotinib] (first compound 0.2 µM, partner dose 0.8 µM) | 32.8%
Nc1nc(F)nc2c1ncn2[C@@H]1O[C@H](CO)[C@@H](O)[C@@H]1O [fludarabine] + COc1cc(N2CCC(N3CCN(C)CC3)CC2)ccc1Nc1ncc(Cl)c(Nc2ccccc2S(=O)(=O)C(C)C)n1 [NVP-TAE684] (first compound 0.2 µM, partner dose 0.08 µM) | 28.6%
CC(=O)c1c(C)c2cnc(Nc3ccc(N4CCNCC4)cn3)nc2n(C2CCCC2)c1=O [palbociclib] + C=CCn1c(=O)c2cnc(Nc3ccc(N4CCN(C)CC4)cc3)nc2n1-c1cccc(C(C)(C)O)n1 [MK1775] (first compound 0.04 µM, partner dose 0.02 µM) | 84.1%
